42 compounds from the antibiotic and cytotoxicity screens of Wong et al. (2023) can be followed below.

The list shows a part of the results.

The test system of one experiment is HSkMC. Nature of the experiment: cytotoxicity call (relative viability < 0.9). Conditions: 10 µM.
Another experiment has as its system HepG2. Put plainly: cytotoxicity call (relative viability < 0.9). Conditions: 10 µM.
For another experiment, the system named is S. aureus RN4220. Nature of the experiment: growth inhibition call (relative growth <= 0.2). Conditions: 50 µM.

Regarding `Cn1cc(CN2C[C@H]3CNC[C@H]3C2)cn1`, the cytotoxicity call in the experiment on HSkMC and in the experiment on HepG2 was “inactive” in each case. Besides, in the experiment on S. aureus RN4220, the growth inhibition call was “inactive”.

Turning to `C#CC1(O)C=CC2C3CCC4=CC(=O)CCC4C3CCC21CC` (stereo unspecified), the cytotoxicity call in the experiment on HSkMC and with HepG2 was “inactive” in each case. In the experiment with S. aureus RN4220, the growth inhibition call was “inactive”.

`CN(C)C(=O)CN1C[C@H]2CON[C@@H]2C1`: the cytotoxicity call with HSkMC and with HepG2 was “inactive” each time. Further, in the experiment on S. aureus RN4220, the growth inhibition call was “inactive”.

`NCCc1ccc(S(N)(=O)=O)cc1`: the cytotoxicity call in the experiment on HSkMC and in the experiment with HepG2 was “inactive” each time. Further, in the experiment on S. aureus RN4220, the growth inhibition call was “inactive”.

For `CC=Cc1ccc2c(c1)OCO2`, the cytotoxicity call with HSkMC and in the experiment with HepG2 was “inactive” throughout. For the same compound, in the experiment with S. aureus RN4220, the growth inhibition call was “inactive”.

Consider `Nc1ccc2c(c1)CNCC2`, for which the cytotoxicity call in the experiment on HSkMC and with HepG2 was “inactive” each time. The growth inhibition call with S. aureus RN4220 was “inactive”.

For `C[C@@H](N)C(=O)N[C@@H](CO)C(=O)N[C@H](C(=O)N[C@H](C(=O)N[C@H](C(=O)N[C@@H](CC(N)=O)C(=O)N[C@@H](Cc1ccc(O)cc1)C(=O)N[C@H](C(N)=O)[C@@H](C)O)[C@@H](C)O)[C@@H](C)O)[C@@H](C)O`, the cytotoxicity call with HSkMC and in the experiment on HepG2 was “inactive” throughout. Besides, the growth inhibition call in the experiment with S. aureus RN4220 was “inactive”.

Regarding `CNCC(O)c1ccc(O)cc1` (stereo unspecified), the cytotoxicity call with HSkMC and in the experiment on HepG2 was “inactive” throughout. Also, the growth inhibition call in the experiment with S. aureus RN4220 is “inactive”.

As for `C/C(=C\[C@@H](N)C(=O)O)CP(=O)(O)O`, the cytotoxicity call in the experiment on HSkMC and in the experiment with HepG2 was “inactive” throughout. For the same compound, the growth inhibition call in the experiment on S. aureus RN4220 was “inactive”.

As for `O=C1C=C2C=CC3CC2(O1)C1CCCCN31` (stereo unspecified), in the experiment with HSkMC, the cytotoxicity call was “inactive”. In the experiment on HepG2, the cytotoxicity call is “active”. Also, the growth inhibition call with S. aureus RN4220 is “inactive”.

For the compound `COCCCNC(=O)[C@@]1(Cc2ccccc2N=[N+]=[N-])N=C(c2ccc(OCCCO)cc2)O[C@H]1c1ccccc1N=[N+]=[N-]`, the cytotoxicity call in the experiment with HSkMC and with HepG2 was “inactive” each time. In addition, the growth inhibition call in the experiment on S. aureus RN4220 is “inactive”.

In the case of `CN1C(=O)NC(=O)/C(=C\c2ccc(O)cc2)C1=O`, the cytotoxicity call in the experiment with HSkMC and with HepG2 was “inactive” in each case. The growth inhibition call in the experiment on S. aureus RN4220 was “inactive”.

As for `C[C@]12CC[C@]3(C)OC[C@](CO)(CO1)N23`, the cytotoxicity call in the experiment on HSkMC and in the experiment with HepG2 was “inactive” in each case. Also, the growth inhibition call with S. aureus RN4220 is “inactive”.

As to `CC(=O)CC1CCCCN1.Cl` (stereo unspecified), the cytotoxicity call in the experiment on HSkMC and with HepG2 was “inactive” in each case. Further, the growth inhibition call with S. aureus RN4220 was “inactive”.

`CCCCOC(=O)c1ccccc1C(=O)OCCCC`: the cytotoxicity call in the experiment on HSkMC is “inactive”. For the same compound, the cytotoxicity call in the experiment on HepG2 is “active”. The growth inhibition call in the experiment on S. aureus RN4220 is “inactive”.

Consider `C[C@H]1O[C@H](C[N+](C)(C)C)C[C@@H]1O`, for which the cytotoxicity call with HSkMC and in the experiment on HepG2 was “inactive” throughout. Further, the growth inhibition call in the experiment with S. aureus RN4220 is “inactive”.

Turning to `CC(=O)N[C@@H]1[C@H](O[C@@H]2O[C@H](C[C@@H](O)[C@H]3O[C@@H](n4ccc(=O)[nH]c4=O)[C@H](O)[C@@H]3O)[C@H](O)[C@H](O)[C@H]2NC(=O)/C=C/CCCCCCCCC(C)C)O[C@@H](CO)[C@H](O)[C@H]1O`, the cytotoxicity call in the experiment on HSkMC is “inactive”. Further, the cytotoxicity call in the experiment with HepG2 is “active”. In addition, the growth inhibition call with S. aureus RN4220 was “active”.

For `O=[As]O[As]=O` (stereo unspecified), in the experiment with HSkMC, the cytotoxicity call is “inactive”. For the same compound, the cytotoxicity call with HepG2 is “active”. Further, the growth inhibition call in the experiment with S. aureus RN4220 was “inactive”.

As for `CCC1=C[C@@H]2[C@H](C1)C[C@]2(CN)CC(=O)O`, the cytotoxicity call with HSkMC and with HepG2 was “inactive” each time. Besides, the growth inhibition call with S. aureus RN4220 is “inactive”.

Regarding `CC(C)[C@@H]1NC[C@@H]2CCCN2C1=O`, the cytotoxicity call in the experiment on HSkMC and in the experiment on HepG2 was “inactive” in each case. For the same compound, in the experiment on S. aureus RN4220, the growth inhibition call is “inactive”.

As for `Cc1cccc(C)c1NC(=O)CN1CCCC1=O`, the cytotoxicity call in the experiment on HSkMC and with HepG2 was “inactive” throughout. Besides, the growth inhibition call in the experiment with S. aureus RN4220 is “inactive”.

Regarding `COc1ccccc1C1(N)CC1`, the cytotoxicity call with HSkMC and in the experiment with HepG2 was “inactive” throughout. Further, the growth inhibition call with S. aureus RN4220 was “inactive”.

Turning to `O=C(O)c1cc(Cl)ccc1Cl`, the cytotoxicity call in the experiment with HSkMC and with HepG2 was “inactive” each time. Also, the growth inhibition call in the experiment with S. aureus RN4220 is “inactive”.

On to `C[C@@H]1CN([C@H](C)CO)C(=O)c2c(c3ccccc3n2C)-c2ccccc2CO[C@H]1CN(C)C(=O)Oc1ccccc1`, for which the cytotoxicity call in the experiment on HSkMC and in the experiment on HepG2 was “inactive” each time. Moreover, the growth inhibition call with S. aureus RN4220 is “inactive”.

Turning to `COC12CC(COC(=O)c3cncc(Br)c3)CN(C)C1Cc1cn(C)c3cccc2c13` (stereo unspecified), the cytotoxicity call in the experiment on HSkMC is “inactive”. In addition, the cytotoxicity call in the experiment with HepG2 was “active”. Besides, the growth inhibition call with S. aureus RN4220 was “inactive”.

Take `COCC(=O)N[C@@H]1[C@@H]2CNC[C@@H]21`: the cytotoxicity call in the experiment with HSkMC and with HepG2 was “inactive” in each case. Besides, the growth inhibition call with S. aureus RN4220 is “inactive”.

As for `CC1CCC2C(C)C(=O)OC3OC4(C)CCC1C32OO4` (stereo unspecified), the cytotoxicity call with HSkMC and in the experiment with HepG2 was “inactive” in each case. In addition, in the experiment on S. aureus RN4220, the growth inhibition call is “inactive”.

Regarding `O/N=C1\CN2CCC1CC2`, the cytotoxicity call in the experiment with HSkMC and in the experiment with HepG2 was “inactive” throughout. For the same compound, the growth inhibition call in the experiment with S. aureus RN4220 was “inactive”.

In the case of `O[C@@]12CCCC[C@@H]1CNCC2`, the cytotoxicity call in the experiment with HSkMC and in the experiment with HepG2 was “inactive” each time. In addition, the growth inhibition call with S. aureus RN4220 was “inactive”.

As to `COC(=O)[C@@H](N)CCCNC(N)=N[N+](=O)[O-]`, the cytotoxicity call in the experiment on HSkMC and with HepG2 was “inactive” throughout. Further, the growth inhibition call in the experiment with S. aureus RN4220 is “inactive”.

Regarding `CC(=O)c1c(O)cc(C)oc1=O`, the cytotoxicity call in the experiment on HSkMC and in the experiment on HepG2 was “inactive” each time. Further, the growth inhibition call in the experiment on S. aureus RN4220 is “inactive”.

Regarding `Cc1cccc([C@H](CN)N(C)C)c1`, the cytotoxicity call in the experiment on HSkMC and in the experiment with HepG2 was “inactive” each time. The growth inhibition call with S. aureus RN4220 is “inactive”.

For the compound `Cl.Cn1c(CCCC(=O)O)nc2cc(N(CCCl)CCCl)ccc21`, the cytotoxicity call in the experiment with HSkMC and with HepG2 was “inactive” throughout. The growth inhibition call in the experiment on S. aureus RN4220 is “inactive”.

With `Cc1c[nH]cn1`, the cytotoxicity call in the experiment with HSkMC and with HepG2 was “inactive” each time. Besides, the growth inhibition call in the experiment on S. aureus RN4220 was “inactive”.

For `COc1ccc(C(=O)O[C@H]2CC[C@@]3(C)[C@@H]4CC[C@H]5[C@]6(O)C[C@H](O)[C@@]7(O)[C@@H](CN8C[C@@H](C)CC[C@H]8[C@@]7(C)O)[C@]6(O)C[C@@]53O[C@]24O)cc1OC`, the cytotoxicity call in the experiment with HSkMC and in the experiment with HepG2 was “inactive” throughout. The growth inhibition call with S. aureus RN4220 is “inactive”.

Consider `Cc1cc(N2CCN(C)CC2)ncn1`, for which the cytotoxicity call with HSkMC and with HepG2 was “inactive” throughout. For the same compound, the growth inhibition call in the experiment with S. aureus RN4220 was “inactive”.

Regarding `COc1cc2c(cc1C=O)OCO2`, the cytotoxicity call in the experiment with HSkMC and in the experiment with HepG2 was “inactive” in each case. The growth inhibition call in the experiment on S. aureus RN4220 was “inactive”.

On to `N#Cc1c(Cl)c(Cl)c(Cl)c(C#N)c1Cl`, for which the cytotoxicity call with HSkMC and with HepG2 was “active” in each case. Further, the growth inhibition call in the experiment with S. aureus RN4220 is “inactive”.

On to `CC(C)N(CCC(C(N)=O)(c1ccccc1)c1ccccn1)C(C)C.O=P(O)(O)O` (stereo unspecified), for which the cytotoxicity call with HSkMC and in the experiment on HepG2 was “inactive” throughout. Also, the growth inhibition call in the experiment with S. aureus RN4220 was “inactive”.

As for `N#CN1CCCC1`, the cytotoxicity call with HSkMC and with HepG2 was “inactive” throughout. The growth inhibition call in the experiment on S. aureus RN4220 was “inactive”.

For `CC(C)=CCCC1(C)C=Cc2c(O)c3c(c(CC=C(C)C)c2O1)OC12C(=CC4CC1C(C)(C)OC2(CC=C(C)C(=O)O)C4O)C3=O` (stereo unspecified), the cytotoxicity call in the experiment with HSkMC was “active”. The cytotoxicity call in the experiment with HepG2 was “inactive”. Further, the growth inhibition call in the experiment with S. aureus RN4220 is “inactive”.

Consider `CCNS(=O)(=O)C(F)(F)C(F)(F)C(F)(F)C(F)(F)C(F)(F)C(F)(F)C(F)(F)C(F)(F)F`, for which the cytotoxicity call in the experiment on HSkMC (human skeletal muscle cells) and with HepG2 was “inactive” throughout. Further, the growth inhibition call in the experiment on S. aureus RN4220 was “inactive”.
